Assay results: the supplement of paper PMC12217912
The other results are listed elsewhere or left out. Sequences were assembled here from the parent chain. Values near 0.05 are background.

B1: TEV protease; numbered along this chain (parent)
chain: MGESLFKGPRDYNPISSSICHLTNESDGHTTSLYGIGFGPFIITNKHLFRRNNGTLVVQSLHGVFKVKDTTTLQQHLVDGRDMIIIRMPKDFPPFPQKLKFREPQREERICLVTTNFQTKSMSSMVSDTSCTFPSGDGIFWKHWIQTKDGQCGSPLVSTRDGFIVGIHSASNFTNTNNYFTSVPKNFMELLTNQEAQQWVSGWRLNADSVLWGGHKVFMVKPEEPFQPVKEATQL

Variants of: B1
Assay: raw area under fraction-flipped curve 0-4 h after induction (AUC4h, not background-subtracted), DNA-recorder readout of cleavage of the substrate (dimensionless); higher = more cleavage of the substrate by the protease variant
Conditions: temperature: 34 °C; time window: 0-4 h after rhamnose induction
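Further: Bxb1 expression induced with 0.2% (w/v) L-rhamnose at OD600 near 0.5, cultures sampled hourly, flipped fraction per protease–substrate barcode pair counted by paired-end Illumina sequencing.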

Variant	area with substrate ENLCFQS	area with substrate ENLDFQS	area with substrate ENLEFQS	area with substrate ENLFFQS	area with substrate ENLHFQS	area with substrate ENLIFQS	area with substrate ENLKFQS	area with substrate ENLLFQS	area with substrate ENLMFQS	area with substrate ENLNFQS	area with substrate ENLPFQS	area with substrate ENLRFQS	area with substrate ENLSFQS	area with substrate ENLVFQS	area with substrate ENLWFQS	area with substrate ENLGFQS	area with substrate ENLQFQS	area with substrate ENLTFQS
MGESLFKGPRDYNPISSSICHLTNESDGHTTSLYGIGFGPFIITNKHLFRRNNGTLVVQSLHGVFKVKDTTTLQQHLVDGRDMIIIRMPKDFPPFPQKLKFREPQREERICLVTTNFQTKSMSSMVSDTSCTFPSGDGIFWKHWIQTKDGQCGSPLVSTRDGFIVGIHSASNFTNTNNYFTSVPKNFMELLTNQEAQQWVSGWRLNADSVLWGGHKVFMVKPEEPFQPVWEATQL [K230W]	0.0838	0.0339	0.073	0.0802	0.0789	0.0999	0.0946	0.0342	0.0712	0.0548	0.0576	0.0704	0.0582	0.0787	0.0676			
MGESLFKGVRDYNPISSSICHLTNESDGHTTSLYGIGFGPFIITNKHLFRRNNGTLVVQSLHGVFKVKDTTTLQQHLVDGRDMIIIRMPKDFPPFPQKLKFREPQREERICLVTTNFQTKSMSSMVSDTSCTFPSGDGIFWKHWIQTKDGQCGSPLVSTRDGFIVGIHSASNFTNTNNYFTSVPKNFMELLTNQEAQQWVSGWRLNADSVLWGGHKVFMVKPEEPFQPVKEATQL [P9V]		0.0576		0.0914	0.0706		0.0823	0.0707			0.0517	0.094	0.0617	0.0802	0.0548	0.072		
MGESLFKGPRDYNPISSSCCHLTNESDGHTTSLYGIGFGPFIITNKHLFRRNNGTLVVQSLHGVFKVKDTTTLQQHLVDGRDMIIIRMPKDFPPFPQKLKFREPQREERICLVTTNFQTKSMSSMVSDTSCTFPSGDGIFWKHWIQTKDGQCGSPLVSTRDGFIVGIHSASNFTNTNNYFTSVPKNFMELLTNQEAQQWVSGWRLNADSVLWGGHKVFMVKPEEPFQPVKEATQL [I19C]		0.0574	0.0437	0.0818			0.0686	0.089	0.0615	0.0512		0.0745	0.0666		0.0567	0.0552	0.0688	
MGESLFKGPRDYNPISSSISHLTNESDGHTTSLYGIGFGPFIITNKHLFRRNNGTLVVQSLHGVFKVKDTTTLQQHLVDGRDMIIIRMPKDFPPFPQKLKFREPQREERICLVTTNFQTKSMSSMVSDTSCTFPSGDGIFWKHWIQTKDGQCGSPLVSTRDGFIVGIHSASNFTNTNNYFTSVPKNFMELLTNQEAQQWVSGWRLNADSVLWGGHKVFMVKPEEPFQPVKEATQL [C20S]		0.0492	0.0628	0.0657	0.0575	0.0822	0.0707	0.0507	0.0438	0.0579	0.0646	0.0552	0.0633	0.0805	0.0518			
MGESLFKGPRDYNPISSSICHLTNESDEHTTSLYGIGFGPFIITNKHLFRRNNGTLVVQSLHGVFKVKDTTTLQQHLVDGRDMIIIRMPKDFPPFPQKLKFREPQREERICLVTTNFQTKSMSSMVSDTSCTFPSGDGIFWKHWIQTKDGQCGSPLVSTRDGFIVGIHSASNFTNTNNYFTSVPKNFMELLTNQEAQQWVSGWRLNADSVLWGGHKVFMVKPEEPFQPVKEATQL [G28E]		0.0501	0.066	0.0703	0.0582	0.0715	0.0655	0.0438		0.0738	0.0565	0.0689	0.0596	0.064	0.078		0.0721	
MGESLFKGPRDYNPISSSICHLTNESDGHTTSLGGIGFGPFIITNKHLFRRNNGTLVVQSLHGVFKVKDTTTLQQHLVDGRDMIIIRMPKDFPPFPQKLKFREPQREERICLVTTNFQTKSMSSMVSDTSCTFPSGDGIFWKHWIQTKDGQCGSPLVSTRDGFIVGIHSASNFTNTNNYFTSVPKNFMELLTNQEAQQWVSGWRLNADSVLWGGHKVFMVKPEEPFQPVKEATQL [Y34G]		0.0489			0.0541		0.0732				0.0618	0.0563	0.0711					
MGESLFKGPRDYNPISSSICHLTNESDGHTTSLYGIGFGEFIITNKHLFRRNNGTLVVQSLHGVFKVKDTTTLQQHLVDGRDMIIIRMPKDFPPFPQKLKFREPQREERICLVTTNFQTKSMSSMVSDTSCTFPSGDGIFWKHWIQTKDGQCGSPLVSTRDGFIVGIHSASNFTNTNNYFTSVPKNFMELLTNQEAQQWVSGWRLNADSVLWGGHKVFMVKPEEPFQPVKEATQL [P40E]		0.0452	0.0668	0.124	0.0697	0.095				0.0726	0.0511		0.0647	0.0952	0.0682			
MGESLFKGPRDYNPISSSICHLTNESDGHTTSLYGIGFGPFIITNYHLFRRNNGTLVVQSLHGVFKVKDTTTLQQHLVDGRDMIIIRMPKDFPPFPQKLKFREPQREERICLVTTNFQTKSMSSMVSDTSCTFPSGDGIFWKHWIQTKDGQCGSPLVSTRDGFIVGIHSASNFTNTNNYFTSVPKNFMELLTNQEAQQWVSGWRLNADSVLWGGHKVFMVKPEEPFQPVKEATQL [K46Y]		0.0687	0.0667	0.0496	0.0381					0.0592	0.0936	0.0583	0.0464	0.0524	0.0729		0.0522	
MGESLFKGPRDYNPISSSICHLTNESDGHTTSLYGIGFGPFIITNKHLFRRHNGTLVVQSLHGVFKVKDTTTLQQHLVDGRDMIIIRMPKDFPPFPQKLKFREPQREERICLVTTNFQTKSMSSMVSDTSCTFPSGDGIFWKHWIQTKDGQCGSPLVSTRDGFIVGIHSASNFTNTNNYFTSVPKNFMELLTNQEAQQWVSGWRLNADSVLWGGHKVFMVKPEEPFQPVKEATQL [N52H]		0.0676	0.0691	0.0659				0.0641	0.0587	0.0684		0.0651		0.0971		0.0597		
MGESLFKGPRDYNPISSSICHLTNESDGHTTSLYGIGFGPFIITNKHLFRRNNGTLVVQYLHGVFKVKDTTTLQQHLVDGRDMIIIRMPKDFPPFPQKLKFREPQREERICLVTTNFQTKSMSSMVSDTSCTFPSGDGIFWKHWIQTKDGQCGSPLVSTRDGFIVGIHSASNFTNTNNYFTSVPKNFMELLTNQEAQQWVSGWRLNADSVLWGGHKVFMVKPEEPFQPVKEATQL [S60Y]		0.0622	0.0657	0.0697	0.0678		0.0649		0.0985		0.0651		0.0468					0.074
